# Measurements: article PMC12136788
# This is one part of the list.
# B1: chr16:57472207:57472321:-|3pUTR|ENSG00000125170|unk|total|mutant (ssRNA)
# RNA: GGGAGUUCUACAGUCCGACGAUCUCAAACUUUUGGUUGUGUGGGGUUUUUUGUUGUUUUUUGGGUUUUGUUUUUUAAUACUUCCGGGUCCUGAUUUGUGGGAACAGACCUUCUUGUAAAUAACCACUAUUUGAGUUGUGGCAGCAACAGAGGAUUGAGCAUCA
# B2: chr1:248850005:248850516:-|three_prime_utr|ENSG00000171163|control|control|control (ssRNA)
# RNA: GGGAGUUCUACAGUCCGACGAUCUUCCCCUGUGAAUUCUGCGGCAAGCGCUUUGAGAAGCCAGACAGUGUUGCAGCCCACCGUAGCAAAAGUCACCCAGCCCUGCUUCUAGCCCCUCAAGAGUCACCCAGUGGUCCCCUAGAGCAACAGAGGAUUGAGCAUCA
# B3: chr1:112701350:112701454:-|3pUTR|ENSG00000155366|unk|total|mutant (ssRNA)
# RNA: GGGAGUUCUACAGUCCGACGAUCGGCUCCAUGCUGAAGGCUCCCAUUUUCAGUUCCCUCCUGCCCAGGACUGCAUUGUUUUCCCGCCCCGAGGUGGUGGCACGGGCCCUCCCUCCCAGCGCUCUGGGAGCCACGCCUAUGCCCCAACAGAGGAUUGAGCAUCA
# B4: chr12:39553730:39553837:-|3pUTR|ENSG00000173208|unk|FALSE|unique (ssRNA)
# RNA: GGGAGUUCUACAGUCCGACGAUCGAAGUAUGUUAAGCUAAGCACAGAGAAAAAAAGGCAGCAAGACAUGUUUUAUAAGAUUUUAGCAUUAAGGAAGUAUAUGAUCUGACUUUUCAGAAGAAAAUAAACAAAUGCAUUAUGUAACAACAGAGGAUUGAGCAUCA
# B5: chr11:18933498:18933815:-|three_prime_utr|ENSG00000170255|control|control|control (ssRNA)
# RNA: GGGAGUUCUACAGUCCGACGAUCAGACAGGACUUUGAGAGCAACACUGCCCUGCCACCCUUGACAAUUAUAUGCGUUUUUCUUAGCCUUCUGCCUCAGAAAUGUCUCAGUGGUUCCUCAAGGUCUUCAAAUAGAUGUUUAUCUCAACAGAGGAUUGAGCAUCA
# B6: chr1:19339193:19339294:-|3pUTR|ENSG00000077549|msi1|total|mutant (ssRNA)
# RNA: GGGAGUUCUACAGUCCGACGAUCGAGACCGUGUGGUUUUUGUUCACCCGGGCCCCCCGUCUUCCUCCCUGUCCCCCCAUUUACCGGCAUAAAAUCCACUGUCUGCCAGCCUCCCUUCCCUCCCACCUUUUUGGUACAUUGGUGCAACAGAGGAUUGAGCAUCA
# B7: chr7:32869766:32869881:-|CDS|ENSG00000170852|unk|FALSE|bound_elsewhere (ssRNA)
# RNA: GGGAGUUCUACAGUCCGACGAUCAUGUACUGUUAUUUUCCAAGGUCUGACUCAUGGGUAGAAAUGGCCAUGAGACAGACUAGUAGGUCCUUUGCUUCAGCUGCAGCUUUUGGUGAUAAAAUUUUCUAUAUUGGAGGGUUGCAUCAACAGAGGAUUGAGCAUCA
# B8: ENSG00000107863:be:win_6301|3pUTR|ENSG00000107863|bound_else_gene|NA|bound_elsewhere_windowed (ssRNA)
# RNA: GGGAGUUCUACAGUCCGACGAUCAUUGGUAACAGAUAUCAUUACAUUUACCAGUUUUAACACAGGUGGAUACAGAACUUCCAUUCUUUAGUCAUUCCAGGUGGAUCUGAGUUUUAUAUUCAAACUUUUAAUACAGUUUUUGAGCAACAGAGGAUUGAGCAUCA
# B9: chr12:96943601:96943709:+|CDS|ENSG00000139350|unk|total|mutant (ssRNA)
# RNA: GGGAGUUCUACAGUCCGACGAUCAACUCAGUGUUUCCUCCAAGAAAAAAUCCAGUAACUUCAAGUACUUCAGUAUUGCAUUCCCGUCCUCUUAAUGUUUUUAUGGGAUCUCCAGGGAAAGAGGAAAAUGAAAACCGUGAUCUACAACAGAGGAUUGAGCAUCA
# B10: chr12:76029359:76029534:-|3pUTR|ENSG00000139289|msi1|FALSE|unique (ssRNA)
# RNA: GGGAGUUCUACAGUCCGACGAUCAGAAGUUUAAAAAGCUAAAAGUUAAAAAUGGUGUAAUUAUGAAAAUCUAACACUCAAGAUAGUUUCUAAAAGGAAAUCAGUAGUUAAGGAUACCUGAUUUCAAAAUAUUUAAAGCAUAACCAACAGAGGAUUGAGCAUCA
# B11: chr12:907890:907991:+|CDS|ENSG00000060237|msi1|total|mutant (ssRNA)
# RNA: GGGAGUUCUACAGUCCGACGAUCGCCUCCUGCCAUGACGUCCAGCAGGAAGGGCACAUUCACAGAUGACUUGCACAAGUUGGCCGACAAUUGGGCCCGAGAUGCCAUGAAUCUCUCAGGCAGGAGAGGAAGCAAAGGGCACAUCAACAGAGGAUUGAGCAUCA
# B12: chr10:94132299:94132400:+|CDS|ENSG00000138193|unk|FALSE|unique (ssRNA)
# RNA: GGGAGUUCUACAGUCCGACGAUCUGAGUAUCGCGCCACCCUCCAAAGGACUUCAAUAUCGCAGUACAUCACCGGUUCUCUCCUAGAAGCAACCACGUCUUUGGGAGCAAGAAGUGGCCUUCUCAGUACUUUUGGAGGAUCCACCAACAGAGGAUUGAGCAUCA
# B13: chr10:104129887:104130138:-|three_prime_utr|ENSG00000197748|control|control|control (ssRNA)
# RNA: GGGAGUUCUACAGUCCGACGAUCAAAAAAUCAUUUCAUUUGGGUAAAAUGAUUUCCUUUUCUUUCUUACUGGGAAAUUGAAGUAGCAUGUCCUCUGAGUUGCAUGUUUUAGAUAAAAAAUUGUUUAAUUUUAGCCUUAAUUGUCAACAGAGGAUUGAGCAUCA
# B14: chr12:27755550:27755651:+|3pUTR|ENSG00000061794|msi1|total|mutant (ssRNA)
# RNA: GGGAGUUCUACAGUCCGACGAUCAUACUAAUGCUUAAUGGCAAUGAUUACUCCAGAGUUUUUUAAUUUUUACACUGGGGCAACCGACCCGGAGGUCUCUGAUUUCUUCUUGGUCUAAAGUGUUUUGAUUUUAUUUCUACAUAACAACAGAGGAUUGAGCAUCA
# Molecular target: MSI1 full-length (mouse, UniProt Q61474 1-362)
# Assay: nsRBNS (natural sequence RNA bind-n-seq); RBNS binding buffer (assumed for nsRBNS): 25 mM Tris pH 7.5, 150 mM KCl, 3 mM MgCl2, 0.01% Triton X-100, 500 ug/ml BSA, 20 U/ml SUPERase-In, 4 C; UNK is unkempt and MSI1 is Musashi-1; names of the RNAs are library labels; protein concentration not given here; high values mean tight binding
# Chain of UniProt Q61474 (Q61474 whole entry): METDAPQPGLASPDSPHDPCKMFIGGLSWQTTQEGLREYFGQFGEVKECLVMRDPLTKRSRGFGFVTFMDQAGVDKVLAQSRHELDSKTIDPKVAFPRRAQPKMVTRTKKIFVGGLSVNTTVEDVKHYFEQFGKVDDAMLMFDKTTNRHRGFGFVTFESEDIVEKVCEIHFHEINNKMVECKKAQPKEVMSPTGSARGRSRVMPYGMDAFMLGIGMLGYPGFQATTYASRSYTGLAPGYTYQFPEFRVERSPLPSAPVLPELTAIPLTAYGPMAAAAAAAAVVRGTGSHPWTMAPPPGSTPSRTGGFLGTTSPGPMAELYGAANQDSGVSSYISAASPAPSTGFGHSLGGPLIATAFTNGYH
row,Binder,binding signal [enrichment R]
1,B1,0.464
2,B2,0.938
3,B3,0.602
4,B4,2.43
5,B5,0.839
6,B6,1.07
7,B7,0.456
8,B8,2.33
9,B9,0.361
10,B10,10.2
11,B11,0.364
12,B12,0.43
13,B13,4.3
14,B14,0.497
